From the antibiotic and cytotoxicity screens of Wong et al. (2023)
The list shows a part of the results.

Tests used:
HSkMC = human skeletal muscle cells; assay: cytotoxicity call (relative viability < 0.9); conditions: 10 µM
HepG2 = assay: cytotoxicity call (relative viability < 0.9); conditions: 10 µM
S. aureus RN4220 = assay: growth inhibition call (relative growth <= 0.2); conditions: 50 µM

COCCN1CC[C@@H](CO)C1
inactive: cytotoxicity call (HSkMC) | cytotoxicity call (HepG2) | growth inhibition call (S. aureus RN4220)

C[C@H]1CN([C@@H](C)CO)C(=O)c2cccc(NS(=O)(=O)c3cccs3)c2O[C@@H]1CN(C)Cc1ccncc1
inactive: cytotoxicity call (HSkMC) | cytotoxicity call (HepG2) | growth inhibition call (S. aureus RN4220)

C[C@H](CO)N1C[C@H](C)[C@@H](CN(C)C(=O)c2ccncc2)OCCCC[C@H](C)Oc2ccc(NS(=O)(=O)c3ccc(Cl)cc3)cc2C1=O
inactive: cytotoxicity call (HSkMC) | cytotoxicity call (HepG2) | growth inhibition call (S. aureus RN4220)

O=C(C[C@H]1C[C@@H]2c3cc(NC(=O)NC4CCCC4)ccc3O[C@@H]2[C@H](CO)O1)NCCN1CCCCC1
inactive: cytotoxicity call (HSkMC) | cytotoxicity call (HepG2) | growth inhibition call (S. aureus RN4220)

C[C@H](CO)N1C[C@H](C)[C@H](CN(C)C(=O)Nc2ccccc2C(F)(F)F)OCc2ccccc2-c2ccccc2C1=O
inactive: cytotoxicity call (HSkMC) | cytotoxicity call (HepG2) | growth inhibition call (S. aureus RN4220)

CN(C)c1ccc(CN)cn1
inactive: cytotoxicity call (HSkMC) | cytotoxicity call (HepG2) | growth inhibition call (S. aureus RN4220)

CN(C)S(=O)(=O)c1ccc(CN)cc1
inactive: cytotoxicity call (HSkMC) | cytotoxicity call (HepG2) | growth inhibition call (S. aureus RN4220)

C[C@@H]1CN([C@@H](C)CO)C(=O)Cc2cc(NS(=O)(=O)c3ccc(F)cc3)ccc2O[C@@H]1CN(C)S(C)(=O)=O
inactive: cytotoxicity call (HSkMC) | cytotoxicity call (HepG2) | growth inhibition call (S. aureus RN4220)

Cc1noc(C)c1S(=O)(=O)N(C)C[C@@H]1OCCCC[C@@H](C)Oc2ccc(NC(=O)Nc3ccc(F)cc3)cc2C(=O)N([C@H](C)CO)C[C@@H]1C
inactive: cytotoxicity call (HSkMC) | cytotoxicity call (HepG2) | growth inhibition call (S. aureus RN4220)

C[C@@H]1CN([C@@H](C)CO)S(=O)(=O)c2ccc(C#Cc3ccccc3)cc2O[C@@H]1CN(C)S(=O)(=O)c1ccccc1F
inactive: cytotoxicity call (HSkMC) | cytotoxicity call (HepG2) | growth inhibition call (S. aureus RN4220)
